Laboratory results from PubChem BioAssay (NCI).
Where “and” joins values, the source holds several entries; their conditions need not be identical. Identical values can stand only once.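 Five compound concentrations were applied to cells in 96-well plates for 48 hours; endpoints were derived by simple linear interpolation of the resulting dose-response curve. The concentration for 50% growth inhibition is given as GI50. TGI denotes the concentration required for complete inhibition of growth.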

Each compound was assayed on NCI-H322M lung (assay: NCI anticancer screen, dose series, 48 h).

Row | SMILES | TGI | GI50 [µM]
1 | O=[N+]([O-])/C(C(Cl)=C(Cl)Cl)=C(\NCc1ccccc1)Sc1ccccc1 | > 100 µM | –
2 | Nc1ncnc2c1ncn2C1(CO)OC(CO)C(O)C1O (stereo not given) | > 100 µM | –
3 | NC(=O)c1c(NC(=O)c2ccc(C(F)(F)F)cc2Cl)sc2c1CCC(=O)C2 | 26.3 µM | 3.17
4 | N#Cc1ccc(N=NN2CCCC2)cc1 | > 100 µM | –
5 | Cc1nc2ccccc2c(/C=C/c2ccc(C(F)(F)F)cc2)c1C(=O)/C=C/c1ccccc1 | 2.83 µM | 1.49
6 | Cc1ccc(S(=O)(=O)NC(=O)Nc2ncn[nH]2)cc1 | > 100 µM | –
7 | COc1cc(C)cc2c1C(=O)C(NC(C)=O)=CC2=O | > 100 µM | –
8 | Cc1ccccc1-n1c(=O)nc2n(-c3ccc(C(C)(C)C)cc3)c3ccccc3cc-2c1=O | 50.6 µM | –
9 | CCOC(=O)c1c(C)n(Cc2ccc(Cl)cc2Cl)c2c1cc(O)c1[nH]c(Cc3ccccc3)nc12 | 21 µM | 4.96
10 | CCCCCCCCCCCCNC(=S)OCCCC | > 100 µM | –
11 | CN1C=C(C(N)=O)Cc2ccsc21 | > 100 µM | –
12 | Cc1ncc2c(n1)CCC1=C2OS(=O)(=O)CC1N(C)C (stereo not given) | > 100 µM | –
13 | C[C@H]1CCC/C=C/[C@@H]2C[C@H](O)C[C@H]2[C@H](O)C(O)C(O)C(=O)O1 (stereo not given in full) | > 100 µM | 2.49
14 | O=C(c1ccsc1)c1nccc2c1cnc1ccccc12 | > 100 µM | –
15 | O=C(N/N=C\c1ccc([N+](=O)[O-])cc1)Nc1ccc2ccccc2c1 | > 100 µM | –
16 | O=C1C2C3C=CC(C2C(=O)N1CN1CCOCC1)C1C2C(=O)N(CN4CCOCC4)C(=O)C2C31 (stereo not given) | > 100 µM | –
17 | CS(C)(=O)=Nn1c(=O)n2n(c1=O)[C@H]1CC[C@@H]2C1 | > 100 µM | –
18 | O=C(/C=C/c1cccc(Cl)c1)c1ccccc1 | 30.7 µM | 14.5
19 | CC(C)OC(=O)NNc1c(Cl)cc(Cl)cc1Cl | 99.4 µM | –
20 | Cc1ccc(C)c(NC(=O)C(=O)C(C2C(C)CC(=O)C2CC(=O)O)[N+](=O)[O-])c1 (stereo not given) | > 100 µM | –
21 | CC(C)(CO)CNc1nc(N)nc(Cl)c1C=O | > 100 µM | –
22 | C=CCn1c(C)nc2cc(Nc3nc(N4CCCC4)nc4nc[nH]c34)ccc21 | > 100 µM | > 100

Row | SMILES | TGI | GI50 [µM]
23 | Cc1nsc2cc(Cl)n(C)c(=O)c12 | > 100 µM | –
24 | CCOC(=O)c1sc2c(c1OC(=O)c1ccco1)c(=O)n(-c1ccccc1)c(=S)n2-c1ccccc1 | > 100 µM | –
25 | NNC(=S)N/N=C(\c1nc2ccc(Cl)cc2[nH]c1=O)C(O)c1cccc([N+](=O)[O-])c1 (stereo not given) | > 100 µM | –
26 | COc1ccc(C2=NC(CO)[C@H](c3ccccc3)O2)cc1OC (stereo not given in full) | > 100 µM | –
27 | CC1=CC(=O)c2ccc3c4ccccc4n(C)c3c2C1=O | > 100 µM | –
28 | O=C(N/N=C/c1coc2ccc(Cl)cc2c1=O)c1cc(O)c(O)c(O)c1 | 64.8 µM | 23.4
29 | Nc1ncnc2c1ncn2C1OC(F)(COS(N)(=O)=O)C(O)C1O (stereo not given) | > 100 µM | > 100
30 | COc1ccc(/C=N/n2c(Cc3ccccc3)n[nH]c2=O)c(OC)c1 | > 100 µM | –
31 | COC(=O)/C=C1/OC(c2ccccc2)=C(Br)C1=O | > 100 µM | –
32 | CC(=O)/C=C1/C(=O)C(CC(C)C)=C1CC(C)C | > 100 µM | –
33 | CC1(C)C2CCC1(C)C(NC(=O)COCCOCC(N)=O)C2 (stereo not given) | > 100 µM | –
34 | CC1(C)CCOC(Sc2ccccc2)C1 (stereo not given) | > 100 µM | –
35 | COc1ccc(C)cc1-c1ccc(-c2cc(C)ccc2OC)o1 | > 100 µM | –
36 | Cc1ccccc1-c1cc(=O)c2cc(C)c(C)c(C(=O)O)c2o1 | > 100 µM | –
37 | C=C1C(=O)OC2/C=C(CO)/C=C\C3OC3(C)CC(OC(=O)/C(C)=C/COC(C)=O)C12 (stereo not given) | 28.1 µM | –
38 | C(#Cc1ccccc1C#Cc1cnccn1)c1cnccn1 | > 100 µM | 68.2
39 | C=CCC(NCc1ccccc1)c1cn(C(=O)OCC)c2ccccc12 (stereo not given) | > 100 µM | 32.8
40 | COC(=O)c1ccc(C)cc1C1CN=NC12Cc1c(C)cccc1C2=O (stereo not given) | > 100 µM | –
41 | Cc1cc(N)c2cc(NC(=O)/C=C\c3ccccc3Cl)ccc2n1 | 2.85 µM | 1.48
42 | O=C(Cn1c(C(=O)/C=C/c2ccc(Cl)c(Cl)c2)nc2ccccc21)c1ccccc1 | 51.3 µM | –
43 | CN(COC(=O)C(C)(C)C)c1nc(N(C)COC(=O)C(C)(C)C)nc(N(C)COC(=O)C(C)(C)C)n1 | > 100 µM | –
44 | COc1cc2c(/C=C3/C(=O)Nc4cc(C)c(O)cc43)c(Cl)[nH]c2cc1C | 9.18 µM | –

Row | SMILES | TGI | GI50 [µM]
45 | N/N=C1\C(=O)N(c2ccc(Cl)c(Cl)c2)C(=O)C1C(=O)Nc1ccc(Cl)c(Cl)c1 (stereo not given) | > 100 µM | –
46 | NC(=S)N/N=C1\CCc2ccccc2C1 | > 100 µM | –
47 | COc1ccc(C(=O)c2no[n+]([O-])c2C(=O)c2ccc(OC)cc2)cc1 | > 54.1 µM | 35.7
48 | COc1cccc(-c2nc(N)c(C#N)c3c2CCS(=O)(=O)c2ccc(C)cc2-3)c1 | 97.4 µM | –
49 | O=C1Nc2ccccc2C1(O)Cc1ccccn1 (stereo not given) | > 100 µM | –
50 | O=C(O)CNc1ncc2c(n1)-c1ccccc1OC2 | > 100 µM | –
51 | CCOC(=O)N1C/C(=C\c2ccc(N(C)C)cc2)C(=O)/C(=C/c2ccc(N(C)C)cc2)C1 | > 100 µM | –
52 | CCOC(=O)C1=C(C)N(Cc2ccccc2)C2(O)C=CC(=O)C3C(=O)N(c4ccccc4)C(=O)C132 (stereo not given) | 27 µM | –
53 | N#Cc1ccccc1NC(=O)C(O)C(O)C(O)C(O)C=O (stereo not given) | > 100 µM | –
54 | COc1ccc(C)cc1NC(=S)N/N=C/c1ccco1 | > 100 µM | –
55 | O=C(O)C(C1NCCS1)N1C(=O)c2ccccc2C1=O (stereo not given) | > 100 µM | –
56 | CC(=O)NC1=C(NCCO)C(=O)c2ccccc2C1=O | > 50 µM | –
57 | CC(C)CC1C(=O)OC(C)(C)OC1=O | > 100 µM | –
58 | C=C1C(=O)OC2/C=C(\CO)C3OC3C3OC3(C)CC(OC(=O)/C(=C/C)COC(C)=O)C12 (stereo not given) | 37.1 µM | –
59 | Clc1nc(NC23CC4CC(CC(C4)C2)C3)nc(NC23CC4CC(CC(C4)C2)C3)n1 | > 100 µM | –
60 | CN(C)Cc1c[nH]c2nc[nH]c(=O)c12 | > 100 µM | –
61 | CC1CCC2C(C(=O)O[C@H]3C4C=CO[C@@H](OC5OC(CO)C(O)C(O)C5O)C4[C@@]4(CO)O[C@@H]34)=CO[C@@H](OC3OC(CO)C(O)C(O)C3O)C12 (stereo not given in full) | > 10 µM | –
62 | CCCCCCCCCCCCNCCCc1ccccc1 | 22.8 µM | 8.12
63 | COc1cccc(/C=N/[N+](C)(C)C)c1O | > 10 µM | –
64 | CC[P+](C)(C)CC | > 100 µM | –
65 | COc1cc(/C=C/C(=O)c2cccc(-n3cc(-c4ccccc4)[nH]c3=O)c2)ccc1O | 15.7 µM | 4.82
66 | CSCCCNC(=O)c1csc(-c2csc(CCNC(=O)CNC(=O)OC(C)(C)C)n2)n1 | > 100 µM | –

Row | SMILES | TGI | GI50 [µM]
67 | CC12CC(Br)(Br)C(=O)C3C1CCCC32 | 29.2 µM | –
68 | NNC(=O)c1cc(Cl)ccc1NC(=O)C12CC3CC(CC(C3)C1)C2 | 56.8 µM | –
69 | CC1=NN(c2ccccc2Cl)C2(C1)C(Cl)C(=O)N2c1nc2ccccc2s1 (stereo not given) | > 100 µM | –
70 | CCCCCCCCCCCCCCCCNc1nc(=O)n(C2CC(O)C(COP(=O)(O)OC3CC(n4cc(F)c(=O)[nH]c4=O)OC3CO)O2)cc1F (stereo not given) | 31.3 µM | –
71 | N=c1oc2ccccc2cc1C(=O)Nc1ccccn1 | > 100 µM | –
72 | CCOC(=O)C(c1ccsc1)P(=O)(OCC)OCC (stereo not given) | 31.3 µM | –
73 | O=C(N/N=C/c1cc(Cl)cc(Cl)c1[O-])c1ccccc1O.O=C(N/N=C/c1cc(Cl)cc(Cl)c1[O-])c1ccccc1O.[Mn+2] | 13.4 µM | 0.552
74 | Nc1ccccc1SC(CC(=O)c1ccccc1)c1c(Cl)cccc1Cl (stereo not given) | 29.8 µM | 13.1
75 | c1ccc(CSCCC(SCc2ccccc2)SCc2ccccc2)cc1 | > 10 µM | –
76 | COc1cccc(C2=C(c3cn(C)c4c(C)cccc34)C(=O)NC2=O)c1 | > 25 µM | > 25
77 | CC(C)C[C@H](NC(=O)[C@@H](N)Cc1cccc2ccccc12)B(O)O | 7.71 µM and 1.23 µM | 2.18
78 | COC(=O)C(C(=O)C(=O)Nc1nc2ccc(OC)cc2s1)c1cnc2ccccc2n1 (stereo not given) | > 100 µM | –
79 | COc1cccc(/C=C2\COc3ccc(O)c(O)c3C2=O)c1OC | 16.4 µM | 4.3
80 | Cc1c2cnccc2c(C)c2c1c1ccccc1n2CCCCCCCl | > 50 µM | –
81 | CSc1nc2c(ncn2C2OC(CO)C(O)C(O)C2O)c(=O)n1C (stereo not given) | > 100 µM | –
82 | NC(N)=NS(=O)(=O)c1ccc(NCc2cccc3c(=O)c4ccc(Cl)cc4oc23)cc1 | > 25 µM | –
83 | Cc1cc(O)c(C(O)c2ccccn2)cc1O (stereo not given) | > 100 µM | –
84 | O=S(=O)([O-])c1ccc(C=Nc2ccccc2)c([O-])c1.O=S(=O)([O-])c1ccc(C=Nc2ccccc2)c([O-])c1.[Co+2] | > 100 µM | > 100
85 | Nc1ncnc2occ(-c3ccc(NC(=O)Nc4cccc(C(F)(F)F)c4)cc3)c12 | 13.9 µM | 4.23
86 | CCc1cn(C2CC(CO)C(CO)S2)c(=O)[nH]c1=O (stereo not given) | > 100 µM | –
87 | CC1=CC2=C(C=O)C(=O)[C@](C)(O)[C@@H](O)C2=CO1 | > 100 µM | –
88 | O=C1C[C@@H]2[C@@H](C=CC23CCCC3)N1O | > 100 µM | –

Row | SMILES | TGI | GI50 [µM]
89 | COP(=O)(OC)[C@@](O)(c1ccccc1)[C@@H](O)[C@@H](O)c1ccccc1 | > 100 µM | –
90 | CC(C)CC1CC2C(=O)N(c3ccccc3)C(=O)C2c2[nH]c3ccccc3c21 (stereo not given) | > 100 µM | –
91 | C#CCNC(CCCN=C(N)N)C(=O)O (stereo not given) | > 100 µM | –
92 | N#C/C(=C\c1ccccn1)c1nc2ccccc2o1 | > 100 µM | 42.8
93 | CCOC(=O)/C(=C\n1c(=O)sc2ccccc21)C(=O)c1ccccc1 | > 100 µM | –
94 | NC(=O)c1c(-c2ccccc2)c(-c2ccccc2)cc2c(=O)c3ccccc3[nH]c12 | > 100 µM | –
95 | COc1cnc2oc3ccc(O)cc3c2c1-c1ccccc1 | > 100 µM | –
96 | Fc1nc(-c2c3ccccc3c3sc4ccccc4n23)nc(N2CCOCCOCCOCCOCC2)n1 | > 100 µM | –
97 | COc1cc(Br)c(C=Nc2cccc3ccc(OS(=O)(=O)c4ccc([N+](=O)[O-])cc4)cc23)cc1OC | > 100 µM | –
98 | O=NN(CC(=O)NNc1ccccc1)CC(=O)NNc1ccccc1 | > 100 µM | > 100
99 | COc1cc(/C=C2\CC3C4CC=C5C[C@@H](N6CCCC6)CC[C@]5(C)C4CC[C@]3(C)[C@H]2OC(C)=O)ccc1OCCCn1ccnc1 (stereo not given in full) | 5.93 µM | 2.19
100 | CCSc1c2cc(OC)ccc2nc2ccc(OC)cc12 | > 91.2 µM | –
101 | COC(=O)N1C=CC2=C(C)C3Nc4ccccc4C3C(C)=C2C1 (stereo not given) | 47 µM | –
102 | COC(=O)c1c(C)c2c(c(C)c1O)OC(=O)c1c(C)cc(O)c(C=O)c1O2 | > 100 µM | –
103 | C=C(Cl)C(Cl)(CBr)CCCC(C)C (stereo not given) | 31.9 µM | –
104 | CCOC(=O)C1Cc2ccc(C)cc2C1=O (stereo not given) | > 100 µM | –
105 | CCc1cccc(CC)c1Nc1nc(-c2ccccc2-c2ccccc2)cs1 | > 100 µM | –
106 | CC1(c2cccc(C(F)(F)F)c2)CC(c2cccc(C(F)(F)F)c2)=C(C#N)C(=C(C#N)C#N)N1 (stereo not given) | 30.1 µM | –
